T1: Recombinant Human IL-6 sR (human, UniProt P08887 20-358, limits assumed)
T1 construct: domain: IL-6 sR; soluble receptor; also called IL-6R
T1 sequence (looked up): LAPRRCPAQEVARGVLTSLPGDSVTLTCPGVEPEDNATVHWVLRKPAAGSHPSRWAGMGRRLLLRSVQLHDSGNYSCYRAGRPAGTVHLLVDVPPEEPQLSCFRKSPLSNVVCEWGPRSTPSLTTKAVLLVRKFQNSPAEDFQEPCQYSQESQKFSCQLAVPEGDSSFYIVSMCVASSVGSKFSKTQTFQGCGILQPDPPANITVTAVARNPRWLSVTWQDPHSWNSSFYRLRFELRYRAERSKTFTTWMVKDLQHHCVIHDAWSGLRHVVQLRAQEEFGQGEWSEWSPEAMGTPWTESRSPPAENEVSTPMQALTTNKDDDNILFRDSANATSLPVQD

T2: Recombinant Human VEGF (human, UniProt P15692-4 27-191)
T2 construct: also called VEGF165
T2 sequence (looked up): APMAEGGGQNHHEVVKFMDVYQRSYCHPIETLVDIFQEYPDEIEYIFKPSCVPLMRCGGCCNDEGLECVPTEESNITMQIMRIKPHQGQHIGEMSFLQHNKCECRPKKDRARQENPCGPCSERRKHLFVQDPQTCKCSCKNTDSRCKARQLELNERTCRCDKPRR

T3: IL-6R on cells (UniProt P08887 20-468, limits assumed)
T3 construct: whole, on cells
T3 sequence (looked up): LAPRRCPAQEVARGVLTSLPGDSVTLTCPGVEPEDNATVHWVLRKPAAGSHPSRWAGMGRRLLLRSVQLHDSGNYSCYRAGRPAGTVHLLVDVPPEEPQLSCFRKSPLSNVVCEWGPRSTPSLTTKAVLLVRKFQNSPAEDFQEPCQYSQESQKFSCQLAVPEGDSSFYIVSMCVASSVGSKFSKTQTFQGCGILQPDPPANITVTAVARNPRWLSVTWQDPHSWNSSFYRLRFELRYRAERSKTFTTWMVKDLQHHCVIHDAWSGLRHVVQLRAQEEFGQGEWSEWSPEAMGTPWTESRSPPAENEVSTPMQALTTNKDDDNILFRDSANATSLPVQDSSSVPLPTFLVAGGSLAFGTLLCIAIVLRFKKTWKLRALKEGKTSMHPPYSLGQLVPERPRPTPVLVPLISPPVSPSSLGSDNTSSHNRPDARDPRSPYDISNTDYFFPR


Legend:
Recombinant Human IL-17 [1] = target: T4, Recombinant Human IL-17 (human, UniProt Q16552 20-155, limits assumed); experiment: cell-based or functional assay
Recombinant Human IL-1β [2] = target: T5, Recombinant Human IL-1β (human, UniProt P01584 117-269); experiment: cell-based or functional assay
Recombinant Human IL-1β [3] = target: T5, Recombinant Human IL-1β; experiment: direct bind ELISA
Procedure: (§1) Enzyme Linked Immunosorbent Assays to screen for antibodies that bind a desired target antigen were performed as follows. High bind ELISA plates (Corning Costar # 3369, Acton, Mass.) were coated with 100 μL/well of 10 μg/ml of desired target antigen (R&D Systems, Minneapolis, Minn.) or desired target antigen extra-cellular domain/FC fusion protein (R&D Systems, Minneapolis, Minn.) or monoclonal mouse anti-polyhistidine antibody (R&D Systems # MAB050, Minneapolis, Minn.) in phosphate buffered saline (10×PBS, Abbott Bioresearch Center, Media Prep# MPS-073, Worcester, Mass.) overnight at 4° C. Plates were washed four times with PBS containing 0.02% Tween 20. Plates were blocked by the addition of 300 μL/well blocking solution (non-fat dry milk powder, various retail suppliers, diluted to 2% in PBS) for ½ hour at room temperature. Plates were washed four times after blocking with PBS containing 0.02% Tween 20.
(§2) Plates were washed 4 times with PBS containing 0.02% Tween 20.
(§3) One hundred microliters of enhanced TMB solution (Neogen Corp. #308177, K Blue, Lexington, Ky.) was added to each well and incubated for 10 minutes at room temperature. The reaction was stopped by the addition of 50 μL 1N sulphuric acid. Plates were read spectrophotometrically at a wavelength of 450 nm.

Recombinant Human IL-17 [4] = target: T4, Recombinant Human IL-17; experiment: direct bind ELISA
Procedure: as §1, §2, §3

Recombinant Human IL-1β [5] = target: T5, Recombinant Human IL-1β; experiment: Biacore SPR
Procedure: (§4) The BIACORE assay (Biacore, Inc, Piscataway, N.J.) determines the affinity of antibodies or DVD-Ig with kinetic measurements of on-rate and off-rate constants. Binding of antibodies or DVD-Ig to a target antigen (for example, a purified recombinant target antigen) is determined by surface plasmon resonance-based measurements with a BiacoreR 1000 or 3000 instrument (Biacore® AB, Uppsala, Sweden) using running HBS-EP (10 mM HEPES [pH 7.4], 150 mM NaCl, 3 mM EDTA, and 0.005% surfactant P20) at 25° C. All chemicals are obtained from Biacore® AB (Uppsala, Sweden) or otherwise from a different source as described in the text. For example, approximately 5000 RU of goat anti-mouse IgG, (Fcγ), fragment specific polyclonal antibody (Pierce Biotechnology Inc, Rockford, Ill.) diluted in 10 mM sodium acetate (pH 4.5) is directly immobilized across a CM5 research grade biosensor chip using a standard amine coupling kit according to manufacturer's instructions and procedures at 25 μg/ml. Unreacted moieties on the biosensor surface are blocked with ethanolamine. Modified carboxymethyl dextran surface in flowcell 2 and 4 is used as a reaction surface. Unmodified carboxymethyl dextran without goat anti-mouse IgG in flow cell 1 and 3 is used as the reference surface. For kinetic analysis, rate equations derived from the 1:1 Langmuir binding model are fitted simultaneously to association and dissociation phases of all eight injections (using global fit analysis) with the use of Biaevaluation 4.0.1 software. Purified antibodies or DVD-Ig are diluted in HEPES-buffered saline for capture across goat anti-mouse IgG specific reaction surfaces. Antibodies or DVD-Ig to be captured as a ligand (25 μg/ml) are injected over reaction matrices at a flow rate of 5 μl/min. The association and dissociation rate constants, kₒₙ (M⁻¹s⁻¹) and koff (s⁻¹) are determined under a continuous flow rate of 25 μl/min. Rate constants are derived by making kinetic binding measurements at different antigen concentrations ranging from […]. The equilibrium dissociation constant (M) of the reaction between antibodies or DVD-Igs and the target antigen is then calculated from the kinetic rate constants by the following formula: KD=koff/kₒₙ. Binding is recorded as a function of time and kinetic rate constants are calculated.

Recombinant Human IL-17 [6] = target: T4, Recombinant Human IL-17; experiment: Biacore SPR
Procedure: as §4

[7] = target: T1, Recombinant Human IL-6 sR; experiment: direct bind ELISA
Procedure: as §1, §2, §3

Recombinant Human VEGF = target: T2, Recombinant Human VEGF; experiment: direct bind ELISA
Procedure: as §1, §2, §3

IL-6R on cells = target: T3, IL-6R on cells; experiment: flow cytometry on cells, 2 µg/mL
Procedure: Stable cell lines overexpressing a cell-surface antigen of interest or human tumor cell lines were harvested from tissue culture flasks and resuspended in phosphate buffered saline (PBS) containing 5% fetal bovine serum (PBS/FBS). Prior to staining, human tumor cells were incubated on ice with (100 μl) human IgG at 5 μg/ml in PBS/FCS. 1−5×10⁵ cells were incubated with antibody or DVD-Ig (2 μg/mL) in PBS/FBS for 30-60 minutes on ice. […] After 30 minutes incubation on ice, cells were washed twice and resuspended in PBS/FBS. Fluorescence was measured using a Becton Dickinson FACSCalibur (Becton Dickinson, San Jose, Calif.).
The geometric mean is the n root of the multiplication product of n fluorescent signals (a1×a2×a3 . . . an). With log-transformed data the geometric mean is used to normalize the weighting of the data distribution.

Row | Binder | IL-17 Neutralization Assay EC50 (HS27 cells, IL-6 secretion) (Recombinant Human IL-17 [1]) | IL-1β Neutralization Assay EC50 (MRC5 cells, hIL-8) (Recombinant Human IL-1β [2]) | EC50 (Recombinant Human IL-1β [3]) | EC50 (Recombinant Human IL-17 [4]) | Kd (Recombinant Human IL-1β [5]) | koff (Recombinant Human IL-1β [5]) | kon (Recombinant Human IL-1β [5]) | Kd (Recombinant Human IL-17 [6]) | koff (Recombinant Human IL-17 [6]) | kon (Recombinant Human IL-17 [6]) | EC50 [7] | EC50 (Recombinant Human VEGF) | FACS Geometric Mean (IL-6R on cells)
1 | DVD121 (bispecific antibody, human IgG1, kappa, outer AB032, inner AB029; vectors V1, V2) heavy: QVQLVESGGGVVQPGRSLRLSCAASGFTFSVYGMNWVRQAPGKGLEWVAIIWYDGDNQYYADSVKGRFTISRDNSKNTLYLQMNGLRAEDTAVYYCARDLRTGPFDYWGQGTLVTVSSASTKGPEVQLVESGGGLVQPGGSLRLSCAASGFTFSNYWMNWVRQAPGKGLEWVAAINQDGSEKYYVGSVKGRFTISRDNAKNSLYLQMNSLRVEDTAVYYCVRDYYDILTDYYIHYWYFDLWGRGTLVTVSS[left out - human IgG1 constant region] light: EIVLTQSPDFQSVTPKEKVTITCRASQSIGSSLHWYQQKPDQSPKLLIKYASQSFSGVPSRFSGSGSGTDFTLTINSLEAEDAAAYYCHQSSSLPFTFGPGTKVDIKRTVAAP[left out - about 100 residues][left out - about 100 residues] | 14.9 nM | 0.04 nM | 9.78 nM | 12.2 nM | 0.0619 nM | 7.52e-05 s⁻¹ | 1.22e+06 M⁻¹ s⁻¹ |  |  |  |  |  | 
2 | DVD122 (bispecific antibody, human IgG1, kappa, outer AB029, inner AB032; vectors V1, V2) heavy: EVQLVESGGGLVQPGGSLRLSCAASGFTFSNYWMNWVRQAPGKGLEWVAAINQDGSEKYYVGSVKGRFTISRDNAKNSLYLQMNSLRVEDTAVYYCVRDYYDILTDYYIHYWYFDLWGRGTLVTVSSASTKGPQVQLVESGGGVVQPGRSLRLSCAASGFTFSVYGMNWVRQAPGKGLEWVAIIWYDGDNQYYADSVKGRFTISRDNSKNTLYLQMNGLRAEDTAVYYCARDLRTGPFDYWGQGTLVTVSS[left out - human IgG1 constant region] light: [left out - about 100 residues]RTVAAPEIVLTQSPDFQSVTPKEKVTITCRASQSIGSSLHWYQQKPDQSPKLLIKYASQSFSGVPSRFSGSGSGTDFTLTINSLEAEDAAAYYCHQSSSLPFTFGPGTKVDIKRTVAAPSVFIFPPSDEQLKSGTASVVCLLNNFYPREAKVQWKVDNALQSGNSQESVTEQDSKDSTYSLSSTLTLSKADYEKHKVYACEVTHQGLSSPVTKSFNRGEC | 0.54 nM | 28 nM | 1200 nM | 0.58 nM |  |  |  | 0.307 nM | 6.66e-05 s⁻¹ | 217000 M⁻¹ s⁻¹ |  |  | 
3 | DVD145 (bispecific antibody, human IgG1, kappa, vectors V1, V2; also called IL-6R and VEGF DVD-Ig) heavy: EVQLQESGPGLVRPSQTLSLTCTVSGYSITSDHAWSWVRQPPGRGLEWIGYISYSGITTYNPSLKSRVTMLRDTSKNQFSLRLSSVTAADTAVYYCARSLARTTAMDYWGQGSLVTVSSASTKGPEVQLVESGGGLVQPGGSLRLSCAASGYTFTNYGMNWVRQAPGKGLEWVGWINTYTGEPTYAADFKRRFTFSLDTSKSTAYLQMNSLRAEDTAVYYCAKYPHYYGSSHWYFDVWGQGTLVTVSS[left out - human IgG1 constant region] light: DIQMTQSPSSLSASVGDRVTITCRASQDISSYLNWYQQKPGKAPKLLIYYTSRLHSGVPSRFSGSGSGTDFTFTISSLQPEDIATYYCQQGNTLPYTFGQGTKVEIKRTVAAPDIQMTQSPSSLSASVGDRVTITCSASQDISNYLNWYQQKPGKAPKVLIYFTSSLHSGVPSRFSGSGSGTDFTLTISSLQPEDFATYYCQQYSTVPWTFGQGTKVEIKRTVAAPSVFIFPPSDEQLKSGTASVVCLLNNFYPREAKVQWKVDNALQSGNSQESVTEQDSKDSTYSLSSTLTLSKADYEKHKVYACEVTHQGLSSPVTKSFNRGEC |  |  |  |  |  |  |  |  |  |  | 0.96 nM | 14.5 nM | 8.23
4 | DVD146 (bispecific antibody, human IgG1, kappa, vectors V1, V2; also called VEGF and IL-6R DVD-Ig) heavy: EVQLVESGGGLVQPGGSLRLSCAASGYTFTNYGMNWVRQAPGKGLEWVGWINTYTGEPTYAADFKRRFTFSLDTSKSTAYLQMNSLRAEDTAVYYCAKYPHYYGSSHWYFDVWGQGTLVTVSSASTKGPEVQLQESGPGLVRPSQTLSLTCTVSGYSITSDHAWSWVRQPPGRGLEWIGYISYSGITTYNPSLKSRVTMLRDTSKNQFSLRLSSVTAADTAVYYCARSLARTTAMDYWGQGSLVTVSS[left out - human IgG1 constant region] light: DIQMTQSPSSLSASVGDRVTITCSASQDISNYLNWYQQKPGKAPKVLIYFTSSLHSGVPSRFSGSGSGTDFTLTISSLQPEDFATYYCQQYSTVPWTFGQGTKVEIKRTVAAPDIQMTQSPSSLSASVGDRVTITCRASQDISSYLNWYQQKPGKAPKLLIYYTSRLHSGVPSRFSGSGSGTDFTFTISSLQPEDIATYYCQQGNTLPYTFGQGTKVEIKRTVAAPSVFIFPPSDEQLKSGTASVVCLLNNFYPREAKVQWKVDNALQSGNSQESVTEQDSKDSTYSLSSTLTLSKADYEKHKVYACEVTHQGLSSPVTKSFNRGEC |  |  |  |  |  |  |  |  |  |  | 124 nM | 0.68 nM | 0.22

— patent US20090311253A1 (AbbVie / Abbott, published 2009)
